Results: the supplement of paper PMC3334620
The full ranking holds about 33,000 sequences; the median of “E-score (-0.5 to 0.5)” is about -0.043, and the highest 2% start at about 0.37. Some of the results follow.

Each sequence was assayed against T1, Upc2 (UniProt Q12151) (assay: PBM E-score (8-mer binding enrichment) (E-score (-0.5 to 0.5)); higher = stronger / more preferred TF binding; most listed sequences are background and not binding sites). Settings: protein concentration: 200 nM; construct: GST-full length.
T1 sequence: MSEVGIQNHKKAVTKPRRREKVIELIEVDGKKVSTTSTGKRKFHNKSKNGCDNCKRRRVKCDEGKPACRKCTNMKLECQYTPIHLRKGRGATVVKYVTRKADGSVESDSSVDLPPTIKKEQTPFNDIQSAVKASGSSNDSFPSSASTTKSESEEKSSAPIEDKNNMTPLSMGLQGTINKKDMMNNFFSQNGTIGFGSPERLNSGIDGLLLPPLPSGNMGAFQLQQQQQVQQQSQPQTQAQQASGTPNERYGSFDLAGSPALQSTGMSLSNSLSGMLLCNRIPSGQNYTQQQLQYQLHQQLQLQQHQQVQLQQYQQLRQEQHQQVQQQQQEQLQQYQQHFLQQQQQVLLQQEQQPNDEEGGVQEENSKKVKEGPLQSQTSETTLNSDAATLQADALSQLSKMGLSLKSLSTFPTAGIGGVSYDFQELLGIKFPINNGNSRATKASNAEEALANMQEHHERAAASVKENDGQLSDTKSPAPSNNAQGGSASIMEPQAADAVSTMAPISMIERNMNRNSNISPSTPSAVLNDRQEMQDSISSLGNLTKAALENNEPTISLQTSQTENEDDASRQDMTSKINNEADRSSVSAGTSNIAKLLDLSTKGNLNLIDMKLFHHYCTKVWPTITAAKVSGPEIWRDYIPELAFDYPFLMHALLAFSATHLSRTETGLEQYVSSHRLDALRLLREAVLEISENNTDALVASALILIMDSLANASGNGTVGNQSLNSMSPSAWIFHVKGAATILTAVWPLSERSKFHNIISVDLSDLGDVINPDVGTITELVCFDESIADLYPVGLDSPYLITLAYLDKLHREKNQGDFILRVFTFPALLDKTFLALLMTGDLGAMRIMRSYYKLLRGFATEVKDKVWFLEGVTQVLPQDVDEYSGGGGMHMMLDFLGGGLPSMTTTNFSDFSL
Description: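 Universal 'all 10-mer' protein binding microarrays (Agilent AMADID 015681) probed with GST-tagged S. cerevisiae TFs (full-length or DBD) made by in vitro transcription/translation (PURExpress), about 100-200 nM. Bound TF was detected with fluorescent anti-GST. Each ungapped 8-mer (which stands for itself and its reverse complement) is scored by the PBM enrichment score (E-score), a modified Wilcoxon-Mann-Whitney statistic from -0.5 to +0.5, computed with the Universal PBM Analysis Suite. Scale: above 0.35 generally sequence-specific binding.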

| Sequence | PBM E-score |
| --- | --- |
| GCGCAGAA | -0.0278 |
| CGTAGGAG | 0.129 |
| ACTGGTCC | -0.0492 |
| CACGTCAG | -0.202 |
| ATAACTAA | -0.0559 |
| ATGTTTAC | 0.172 |
| AAACCTTG | -0.371 |
| TCCATCAA | -0.0944 |
| GGAGGTGA | -0.0372 |
| GAACAGAC | -0.00742 |
| GTTGGGAA | -0.0141 |
| GGGATATA | -0.193 |
| AGCCGGGC | -0.0832 |
| CGCTCAAC | 0.126 |
| ACATTCGA | 0.0307 |
| ATAATAAT | 0.0597 |
| AGCAGGAT | -0.212 |
| ACCCCCGC | -0.233 |
| AGCCCCGA | -0.17 |
| ATCATAAG | 0.0881 |
| TAGGCCAA | -0.123 |
| GAGCAGGC | -0.146 |
| AAAGTATT | -0.149 |
| CGGTGTAA | 0.15 |
| CACGCGCC | -0.158 |

| Sequence | PBM E-score |
| --- | --- |
| GGTATAGA | 0.111 |
| GTGGGTAA | -0.183 |
| GACAGGCA | -0.0853 |
| ACTGAAGT | -0.0535 |
| ATTCGATC | 0.0986 |
| ATCACGGC | -0.0304 |
| GTTCCTGA | 0.0703 |
| AGTGACGC | 0.0137 |
| AATATGAT | -0.0941 |
| CGCTTTTA | 0.0813 |
| ACGATCGA | 0.294 |
| AGTGCAGC | -0.22 |
| GCTTAACC | 0.0126 |
| AACCACTA | -0.0891 |
| GGACGGGA | -0.0849 |
| GAGTAAGA | -0.00183 |
| CCGTCTCG | 0.174 |
| GTGCCGGA | -0.103 |
| CTAGAGGC | -0.129 |
| TACAGTGA | -0.0988 |
| AGCAAGGC | -0.12 |
| CCAATCGC | -0.0252 |
| ACCCTTGG | -0.211 |
| TCCAGCCA | -0.231 |
| TGCAGGCA | -0.105 |

| Sequence | PBM E-score |
| --- | --- |
| AGATGCTA | 0.00425 |
| ACACGTGG | -0.174 |
| AAATGCAT | -0.0482 |
| ATGACAGG | -0.132 |
| CTGTCGGA | 0.0382 |
| GGCATAAC | -0.0916 |
| AACATGGG | -0.11 |
| ACAAGTCA | -0.0319 |
| CGAAACAC | 0.0965 |
| GACTTCCC | -0.209 |
| GCTCGACA | -0.151 |
| CAGGCCTC | -0.293 |
| CACGATTC | 0.258 |
| AACAAGGC | -0.167 |
| CGCATAAC | 0.238 |
| ATTACGTC | -0.0126 |
| AACTTGCT | -0.304 |
| TATTCCGA | 0.0382 |
| ACCTGGAG | -0.161 |
| TACTGCAA | 0.00266 |
| CAGACAGG | -0.078 |
| GGCGATCA | -0.12 |
| AGATTGGA | -0.163 |
| CCTATACC | 0.167 |
| CGCCAAAC | 0.108 |

| Sequence | PBM E-score |
| --- | --- |
| GAACCTAA | -0.0948 |
| GGAGGGAA | -0.19 |
| CCGATATC | 0.0326 |
| AAGGGCTG | -0.332 |
| GAAGATGC | -0.128 |
| AATACAAA | 0.118 |
| ACGCGGTG | 0.042 |
| AACACCTC | -0.0661 |
| CGCATCGA | 0.0973 |
| AGCCAGCT | -0.0464 |
| TATCACCA | 0.0386 |
| GGTACAAA | 0.0128 |
| CTCGATGA | -0.0714 |
| AATTGCCA | -0.125 |
| ATTGTCCG | -0.0457 |
| CCATAGCG | -0.0286 |
| CATGAGCC | -0.215 |
| AATCACTA | 0.0266 |
| ATTGGGGA | -0.134 |
| CGCAGTAG | -0.0605 |
| AGCCTTCA | -0.211 |
| CTAGTGAC | -0.191 |
| TGCAGCCA | -0.109 |
| CTCGCCCA | -0.102 |
| TAAAGCAA | 0.0119 |

| Sequence | PBM E-score |
| --- | --- |
| CATTGCAA | -0.101 |
| AATGCCGT | 0.143 |
| AGGACGAA | -0.156 |
| CCTGTTCC | -0.177 |
| CGTCGCAC | 0.131 |
| ACGGGATG | 0.15 |
| CGGTACGC | 0.324 |
| GGGCAGTA | 0.0248 |
| GGGTCACA | -0.201 |
| GGAGCGAA | 0.152 |
| ATGGCATC | -0.118 |
| AGATTTCA | 0.0224 |
| TATTAAGA | 0.164 |
| GTATTTGA | 0.119 |
| ATCTATTC | 0.0736 |
| ACCCAGAT | -0.233 |
| ATAAGTCC | -0.0003 |
| GACGTGAC | -0.00555 |
| CGGACGTC | 0.131 |
| CGCCATAA | -0.168 |
| GAGAACAC | -0.225 |
| GAACCACA | -0.0218 |
| TCGAAGCA | -0.0264 |
| TACACGCA | -0.00816 |
| TAAGCCAA | -0.00755 |

| Sequence | PBM E-score |
| --- | --- |
| ACACAATA | 0.0571 |
| GACAGTGA | -0.0168 |
| TACGGACA | 0.3 |
| AGAATGTC | -0.0606 |
| ATCTTGTA | 0.0573 |
| AGCCTCTG | -0.0978 |
| GATCTAGA | -0.139 |
| ACATCCAT | -0.102 |
| AACTAAGA | 0.0375 |
| CCCAAAGA | -0.274 |
| CAGGTGTC | -0.185 |
| GAAAGCGA | 0.119 |
| AACTGCTA | -0.0821 |
| GCAAATGA | 0.0817 |
| AATTTGCT | -0.0154 |
| CAAATGCA | 0.0199 |
| TAGTATGA | -0.0515 |
| CGAAAGAG | 0.0497 |
| AGACAATA | 0.148 |
| ACCGCTAA | 0.128 |
| CATTATCA | -0.176 |
| AGCGAAAG | 0.133 |
| AATTTAAT | 0.0226 |
| GCGAGAGC | 0.23 |
| GATTACGC | 0.0207 |

| Sequence | PBM E-score |
| --- | --- |
| ACCCGGGG | -0.0738 |
| TAGTGGGA | -0.312 |
| CCGAGCCA | -0.0165 |
| TCAGGAAA | -0.0998 |
| ATATTGGA | -0.149 |
| AAGTGATC | 0.00472 |
| CTCGGTCA | 0.195 |
| ATCACGCC | -0.0941 |
| CCTACGCC | -0.257 |
| AGAGCGAG | 0.127 |
| ACACACCA | 0.073 |
| GTAGACGA | 0.218 |
| TCATAGAA | -0.0214 |
| GACGATAC | 0.124 |
| GAAAGTAC | 0.0246 |
| AGAGCCCC | -0.0215 |
| CCACATAC | 0.232 |
| ACACTTGA | -0.0493 |
| GACCAACA | 0.00527 |
| ATAGAAGA | -0.158 |
| ACATAGGT | 0.0287 |
| GCATCATA | 0.00045 |
